Measurements published in PubChem BioAssay AID540317 (National Center for Advancing Translational Sciences (NCATS), 2011).
“And” between values parts separate entries of the source, which are not always exact repeats. Identical values can stand only once. The whole screen tested about 390,000 compounds, of which about 2,200 (0.56%) were called active. This list was built around the results that the source calls inconclusive (neither active nor inactive); the mix of calls is not that of the screen. Calls follow the shape of the dose curve; as a rule, active = well fitted inhibition curve with a large enough effect; inconclusive = small, poorly fitted or top-dose-only effect; inactive = no such curve, though single readings can be large or run the other way. A potency beside an inconclusive call is a rough fit, not a confirmed value.
Also: nearly all actives have a fitted effect of over 70% in size.
Potency is read from the fitted curve at half-maximal effect; tags tell the direction and shape of the fitted curve.

The compounds below were run against Chromobox protein homolog 1 (Homo sapiens) (UniProt P83916) (assay: HTS for Inhibitors of HP1-beta Chromodomain Interactions with Methylated Histone Tails). Details: AlphaScreen HP1-beta / biotin-H3K9me3 peptide binding; series mostly up to 114 µM; activity change, negative = inhibition: at the top concentration.
UniProt P83916, sequence (P83916 whole entry, looked up): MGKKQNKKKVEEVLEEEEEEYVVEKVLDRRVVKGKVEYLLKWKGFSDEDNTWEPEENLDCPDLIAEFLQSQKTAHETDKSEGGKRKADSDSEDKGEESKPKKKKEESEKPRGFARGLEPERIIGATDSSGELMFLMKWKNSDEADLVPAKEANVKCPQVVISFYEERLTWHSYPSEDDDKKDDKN
Method in brief: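 Compound inhibition of the preformed complex between 50 nM HP1-beta and 50 nM biotinylated H3K9me3 peptide was read by AlphaScreen. Buffer was PBS pH 7.4 with 0.01% Tween-20. Incubations ran 30 min at room temperature, with 10 ug/mL donor/acceptor beads.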
In the case of `O=[N+]([O-])c1ccc(Cl)c2c1C1C=CCC1C(c1ccccn1)N2` (stereo unspecified), the Potency is reported as inconclusive: 25.1 µM [inhibitor, full curve].
`CCCC(=O)N1CCN(c2ccc(NC(=O)c3cccs3)cc2)CC1` was tested, and the Potency was inconclusive: 39.8 µM [inhibitor, full curve].
With `Cc1ccccc1CN1CCN(S(=O)(=O)c2ccc(F)cc2)CC1` the Potency was inconclusive: 56.2 µM [inhibitor, partial curve, poor fit].
For `CCc1ccc(CN(C)CCc2ccccn2)cc1`, the Potency was inconclusive: 25.1 µM [inhibitor, full curve].
In the case of `CCCN(CCC)CCOc1cc(C)ccc1C(C)C`, the Potency is reported as inconclusive: 14.1 µM [inhibitor, partial curve, poor fit].
With `Cc1cccc2nc(-c3ccco3)c(Nc3ccc4c(c3)OCO4)n12` the Potency was inconclusive: 35.5 µM [inhibitor, partial curve] and inconclusive: 50.1 µM [inhibitor, partial curve].
With `COc1ccc(OC)c(CN2CCCCCC2)c1` the Potency was inconclusive: 50.1 µM [inhibitor, partial curve, poor fit].
`Cc1cc(C)cc(C(=O)N2CCN(Cc3ccc4c(c3)OCO4)CC2)c1` was tested, and the “activity change, negative = inhibition” value was inactive: 17.8%.
For `O=[N+]([O-])c1cc(/C=N/n2c(-c3cccnc3)n[nH]c2=S)ccc1Cl`, the “activity change, negative = inhibition” value was inactive: -7.56%.
`COc1ccc(NS(=O)(=O)c2ccc(OC)c3ccccc23)cn1` was tested, and the Potency was inconclusive: 39.8 µM [inhibitor, single point].
With `Cc1ccc2c(c1)cc(CN(Cc1ccco1)C(=O)COc1ccccc1)c1nnnn12` the Potency was inconclusive: 39.8 µM [inhibitor, single point].
With `Cc1ccccc1OCc1nc2ccccc2c(=O)n1/N=C/c1ccco1` the “activity change, negative = inhibition” value was inactive: 4.27%.
For `COc1ccc(N2CCN(C(=O)COC(=O)[C@@H](NC(=O)OCc3ccccc3)C(C)C)CC2)cc1`, the “activity change, negative = inhibition” value was inactive: -23.2%.
With `COc1ccc(N2CCN(C(=O)C3CCN(S(=O)(=O)c4cccs4)CC3)CC2)cc1` the Potency was inconclusive: 25.1 µM [inhibitor, full curve].
With `Cc1cccc(N2CCN(c3ccc(NC(=O)/C=C(/C(=O)O)c4ccccc4)cc3)CC2)c1` the Potency was inconclusive: 31.6 µM [inhibitor, single point].
`Cc1ccc(CN2CCSc3ccc(C(=O)N4CCN(c5ccccc5)CC4)cc32)cc1` was tested, and the “activity change, negative = inhibition” value was inactive: 0.235%.
With `CC(=O)c1cccc(OCC(O)CN2CCN(S(=O)(=O)c3c(F)cccc3F)CC2)c1` (stereo unspecified) the Potency was inconclusive: 35.5 µM [inhibitor, single point].
For `CCOC(=O)c1cc(-c2ccccc2)sc1NC(=O)C(C)C`, the Potency was inconclusive: 39.8 µM [inhibitor, single point].
For `S=C(NNc1cccc(Cl)c1)NC1CCCCC1`, the Potency was inconclusive: 56.2 µM [inhibitor, partial curve, poor fit].
With `COC(=O)CCC(=O)OC1(C)C(=O)C=C2C=C3CCCN3C=C2C1=O` (stereo unspecified) the Potency was inconclusive: 70.8 µM [inhibitor, partial curve].
`Sc1oc(-c2ccccc2)cc1C=Nc1ccccc1` was tested, and the Potency was inconclusive: 20 µM [inhibitor, partial curve, poor fit].
With `O=C(O)Cc1ccc(N=Nc2c(O)c(C(=O)O)cc3ccccc23)cc1` the Potency was active: 50.1 µM.
In the case of `CC(C)CNC(=O)CN1c2cccc3cccc(c23)S1(=O)=O`, the “activity change, negative = inhibition” value is reported as inactive: 17%.
In the case of `COc1ccc(OC)c(CN2CCC(Cc3ccccc3)CC2)c1`, the Potency is reported as inconclusive: 25.1 µM [inhibitor, single point].
With `CC(C)N1CCN(c2ccc(OC[C@H]3CO[C@](Cn4cncn4)(c4ccc(Cl)cc4Cl)O3)cc2)CC1` the Potency was inconclusive: 39.8 µM [inhibitor, partial curve, poor fit].
In the case of `CCc1ccc(N=C2NC(=O)/C(=C/c3cc(Br)c(OCC(=O)O)c(OC)c3)S2)cc1`, the Potency is reported as inconclusive: 39.8 µM [inhibitor, partial curve].
For `Cc1ccccc1Nc1c(-c2ccccn2)nc2c(C)cccn12`, the Potency was inconclusive: 50.1 µM [inhibitor, partial curve].
With `CCOC(=O)N1CCC(N2CCN(S(=O)(=O)CC)CC2)CC1` the Potency was inconclusive: 15.8 µM [inhibitor, full curve].
With `Cn1c(=O)n(CCO)c(=O)c2c1nc(Br)n2Cc1ccccc1` the “activity change, negative = inhibition” value was inactive: 26.1%.
In the case of `COc1cc(C(=O)Nc2ccc(Nc3ccccc3)cc2)cc(OC)c1OC`, the “activity change, negative = inhibition” value is reported as inactive: -21.1%.
With `CN(c1cccc(NC(=O)c2ccc(N(C)S(=O)(=O)c3ccccc3)cc2)c1)S(C)(=O)=O` the Potency was inconclusive: 6.31 µM [inhibitor, full curve].
For `Cc1onc(-c2ccccc2)c1C(=O)OCc1nnc(-c2ccc([N+](=O)[O-])cc2)o1`, the Potency was inconclusive: 25.1 µM [inhibitor, single point].
In the case of `CCC(C)(C)n1nnnc1C(c1ccc(O)cc1)N1CCc2ccccc2C1` (stereo unspecified), the Potency is reported as inconclusive: 79.4 µM [inhibitor, single point].
With `CC[C@]12C(=O)N(C)C[C@H]([C@@H]3C(=O)N(Cc4ccccc4)C(=O)[C@@H]31)N2C(=O)c1ccc(Br)cc1` the Potency was inconclusive: 89.1 µM [inhibitor, single point].
`COc1ccc(C(=O)Nc2ccc(-c3n[nH]c(=S)o3)cc2)cc1` was tested, and the “activity change, negative = inhibition” value was inactive: 26.3%.
For `O=C(O)C(Cc1cn[nH]n1)=NO`, the Potency was inconclusive: 15.8 µM [inhibitor, full curve].
In the case of `CCSC1=NC2(CCCCC2)Nc2sc3c(c21)CCCC3`, the Potency is reported as inconclusive: 70.8 µM [inhibitor, single point].
For `Cc1ccc2[nH]c3c(c2c1)CN(C(=O)CN1CCN(Cc2ccc4c(c2)OCO4)CC1)CC3`, the Potency was inconclusive: 50.1 µM [inhibitor, partial curve].
For `COc1ccc(N2CCN(C(=O)c3cn(CC(C)C)c(=O)c4c3c3ccccc3n4C)CC2)cc1`, the Potency was inconclusive: 22.4 µM [inhibitor, partial curve, poor fit].
In the case of `CC(C)(C)C1CCc2c(sc(NC(=O)Cn3nnc(-c4ccccc4F)n3)c2C#N)C1` (stereo unspecified), the “activity change, negative = inhibition” value is reported as inactive: 5.14%.
For `COc1ccc(OCC(=O)OCc2cc(=O)n3nc(C4CCCCC4)sc3n2)cc1`, the Potency was inconclusive: 89.1 µM [inhibitor, partial curve, poor fit].
With `O=C(c1ccc(Cn2cnnn2)cc1)N1CCCC(Nc2ccc(F)c(F)c2)C1` (stereo unspecified) the “activity change, negative = inhibition” value was inactive: 26.1%.
With `O=c1nc(NC2CCCC2)ccn1Cc1cccc(Br)c1` the “activity change, negative = inhibition” value was inactive: -1.76%.
With `COc1ccc(-n2cc(-c3ccccc3)c3c(NN4CCOCC4)ncnc32)cc1` the Potency was inconclusive: 70.8 µM [inhibitor, partial curve].
`O=[N+]([O-])c1ccc(N/N=C\c2cccn2-c2ccccc2)nc1` was tested, and the Potency was inconclusive: 20 µM [inhibitor, full curve, poor fit].
For `CCC(=O)N(C)CCc1cc2c(c(OC)c1/C=N/NC(=O)c1ccc(Br)cc1)OCO2`, the Potency was inconclusive: 39.8 µM [inhibitor, single point].
With `C/C(=N\NC(=S)Nc1cccc(C)c1)c1ccccc1` the Potency was inconclusive: 25.1 µM [inhibitor, single point].
With `O=C(Nc1cccc(S(=O)(=O)NC2=NCCCCC2)c1)c1cc(-c2ccco2)nc2ccccc12` the Potency was inconclusive: 15.8 µM [inhibitor, partial curve, poor fit].
In the case of `O=c1ccc2[n+]([O-])c3ccc(O)cc3oc-2c1`, the Potency is reported as inconclusive: 35.5 µM [inhibitor, partial curve, poor fit].
With `CC1(CC(=O)N/N=C/c2cc([N+](=O)[O-])c(O)cc2O)OCCO1` the Potency was active: 8.91 µM.
For `Cc1ccccc1C(=O)NNC(=O)C1CCN(C(=O)Nc2ccccc2)CC1`, the “activity change, negative = inhibition” value was inactive: 11.8%.
For `CCCN1C(=O)/C(=C/c2ccncc2)SC1=S`, the Potency was inconclusive: 28.2 µM [inhibitor, partial curve, poor fit].
In the case of `CCC1CN(C(=O)N2CCC(C(=O)NCc3cccc(C)c3)CC2)c2ccccc2O1` (stereo unspecified), the “activity change, negative = inhibition” value is reported as inactive: -3.35%.
In the case of `CN1C(c2ccccc2)=NO[C@]1(C)c1ccccc1`, the “activity change, negative = inhibition” value is reported as inactive: 38.9%.
With `CC1C/C(=N\NC(=S)NCc2ccccc2)CC(C)(C)C1` (stereo unspecified) the Potency was inconclusive: 22.4 µM [inhibitor, partial curve, poor fit].
In the case of `Cc1sc2nc3c(C(=O)N4CCCC4)cc(C(=O)c4ccccc4O)cn3c(=O)c2c1C`, the Potency is reported as inconclusive: 44.7 µM [inhibitor, partial curve].
With `CCCC(=O)Nc1nc(C)c(-c2csc(Nc3ccc(Cl)cc3)n2)s1` the Potency was inconclusive: 35.5 µM [inhibitor, partial curve, poor fit].
For `Nc1cc(S(=O)(=O)Nc2cc(Cl)ccc2Cl)ccc1N1CCOCC1`, the Potency was inconclusive: 28.2 µM [inhibitor, partial curve].
With `COc1cccc(/C=C/C(=O)OCC(=O)Nc2ccc(Cl)c(S(=O)(=O)N(C)C)c2)c1` the “activity change, negative = inhibition” value was inactive: 34.5%.
In the case of `COc1ccc(-n2c(O)c(/C=N/NS(=O)(=O)c3ccc(C)c([N+](=O)[O-])c3)c3ccccc3c2=O)cc1OC`, the Potency is reported as inconclusive: 28.2 µM [inhibitor, full curve].
In the case of `Cc1ccc(/C=C/C(=O)Nc2cc(S(N)(=O)=O)ccc2O)cc1`, the Potency is reported as inconclusive: 39.8 µM [inhibitor, partial curve].
For `COC(=O)c1ccc(Oc2c(Cl)cccc2[N+](=O)[O-])cc1`, the Potency was inconclusive: 39.8 µM [inhibitor, single point].
In the case of `O=C(/C(=N/N=C/c1ccc(O)c(O)c1)c1ccccc1)c1ccccc1`, the Potency is reported as inconclusive: 15.8 µM [inhibitor, full curve, poor fit].
In the case of `CC(C)(C)C1CCC(=NNc2nc3ccccc3[nH]2)CC1` (stereo unspecified), the “activity change, negative = inhibition” value is reported as inactive: 26.7%.
In the case of `O=C(c1cc(-c2ccccc2)on1)N1CCCc2ccccc21`, the “activity change, negative = inhibition” value is reported as inactive: 73.7%.
`O=C(NCCc1ccccc1)c1cnc2sc(N3CCCC3)nn2c1=O` was tested, and the “activity change, negative = inhibition” value was inactive: -3.36%.
